In article PMC6794377:
Where a chain is given by its changes, count along the chain named. No constants are given. Whether binding was seen depends on the method and setting. In cells and extracts the contact can be indirect. Some results given as binding are weak or reduced against the parent protein; the word gives no strength. Tags and fused reporters may be left off the sequences shown.

Amino acid sequences for entries named in this document (tags omitted).
UniProt P07814: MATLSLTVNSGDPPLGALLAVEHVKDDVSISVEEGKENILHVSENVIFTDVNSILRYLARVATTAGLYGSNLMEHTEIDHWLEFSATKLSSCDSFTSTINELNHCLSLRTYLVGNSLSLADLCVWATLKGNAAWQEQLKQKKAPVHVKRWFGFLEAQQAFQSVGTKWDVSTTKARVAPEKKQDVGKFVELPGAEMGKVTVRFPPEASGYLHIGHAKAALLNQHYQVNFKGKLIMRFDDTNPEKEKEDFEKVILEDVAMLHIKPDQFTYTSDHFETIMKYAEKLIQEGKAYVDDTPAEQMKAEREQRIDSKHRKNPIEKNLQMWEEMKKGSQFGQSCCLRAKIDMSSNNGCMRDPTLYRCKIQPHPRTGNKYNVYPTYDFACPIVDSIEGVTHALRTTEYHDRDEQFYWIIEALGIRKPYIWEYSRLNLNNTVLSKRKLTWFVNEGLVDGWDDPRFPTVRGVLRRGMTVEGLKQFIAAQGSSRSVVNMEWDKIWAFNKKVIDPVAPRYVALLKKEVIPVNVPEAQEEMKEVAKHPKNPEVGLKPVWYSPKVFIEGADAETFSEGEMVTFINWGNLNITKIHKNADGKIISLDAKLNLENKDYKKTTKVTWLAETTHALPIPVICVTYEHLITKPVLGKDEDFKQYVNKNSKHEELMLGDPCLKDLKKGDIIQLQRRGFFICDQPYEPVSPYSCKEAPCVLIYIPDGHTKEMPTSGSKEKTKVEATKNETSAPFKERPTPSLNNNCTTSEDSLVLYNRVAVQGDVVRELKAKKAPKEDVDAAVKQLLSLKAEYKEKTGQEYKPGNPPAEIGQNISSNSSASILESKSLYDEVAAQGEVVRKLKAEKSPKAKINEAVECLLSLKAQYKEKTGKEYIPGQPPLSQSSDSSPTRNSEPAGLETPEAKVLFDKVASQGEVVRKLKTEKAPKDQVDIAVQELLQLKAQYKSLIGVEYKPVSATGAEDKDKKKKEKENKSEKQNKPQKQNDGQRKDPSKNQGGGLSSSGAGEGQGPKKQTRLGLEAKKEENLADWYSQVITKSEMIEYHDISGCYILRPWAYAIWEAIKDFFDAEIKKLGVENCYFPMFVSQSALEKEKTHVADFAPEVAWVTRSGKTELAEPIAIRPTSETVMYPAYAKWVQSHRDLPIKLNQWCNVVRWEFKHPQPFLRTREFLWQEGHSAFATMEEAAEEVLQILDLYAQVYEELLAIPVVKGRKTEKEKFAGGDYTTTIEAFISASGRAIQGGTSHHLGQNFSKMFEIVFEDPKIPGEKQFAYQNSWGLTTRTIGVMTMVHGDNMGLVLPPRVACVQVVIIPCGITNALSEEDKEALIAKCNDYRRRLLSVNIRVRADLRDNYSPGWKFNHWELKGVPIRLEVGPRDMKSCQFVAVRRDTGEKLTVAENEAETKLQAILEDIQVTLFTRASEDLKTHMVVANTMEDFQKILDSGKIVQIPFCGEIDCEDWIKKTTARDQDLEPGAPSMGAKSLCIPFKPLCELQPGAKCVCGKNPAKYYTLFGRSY

Tests used:
Test in all cases: co-IP; FLAG-tagged hThrRS-L or mutant overexpressed in HEK293T; IP with anti-FLAG, Dynabeads protein G, 4°C; endogenous partners detected by western blotting
[1] = target: T1, hThrRS-L-Ha/A-FLAG (human) (UniProt A2RTX5)
T1 sequence: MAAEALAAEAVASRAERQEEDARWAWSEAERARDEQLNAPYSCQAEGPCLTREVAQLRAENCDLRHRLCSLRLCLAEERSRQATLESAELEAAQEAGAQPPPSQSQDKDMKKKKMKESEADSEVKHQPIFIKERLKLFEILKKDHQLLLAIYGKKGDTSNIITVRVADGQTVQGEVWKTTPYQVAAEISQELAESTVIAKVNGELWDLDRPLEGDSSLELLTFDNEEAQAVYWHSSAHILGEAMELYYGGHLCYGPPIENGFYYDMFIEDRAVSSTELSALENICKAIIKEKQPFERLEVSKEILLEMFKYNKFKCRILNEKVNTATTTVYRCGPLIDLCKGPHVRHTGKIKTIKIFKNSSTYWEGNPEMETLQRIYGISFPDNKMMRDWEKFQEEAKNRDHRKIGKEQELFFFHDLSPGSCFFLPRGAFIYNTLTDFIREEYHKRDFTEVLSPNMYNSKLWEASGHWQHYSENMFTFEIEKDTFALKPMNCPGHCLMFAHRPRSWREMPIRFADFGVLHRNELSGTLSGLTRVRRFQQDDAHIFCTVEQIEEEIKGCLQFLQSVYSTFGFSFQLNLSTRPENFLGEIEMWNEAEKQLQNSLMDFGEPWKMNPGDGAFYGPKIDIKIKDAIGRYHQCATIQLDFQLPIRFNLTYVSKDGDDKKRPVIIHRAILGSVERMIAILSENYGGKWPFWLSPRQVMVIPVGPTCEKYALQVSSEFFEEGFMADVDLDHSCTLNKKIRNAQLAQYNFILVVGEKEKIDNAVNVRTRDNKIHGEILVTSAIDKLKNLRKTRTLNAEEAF

[2] = target: T2, C-terminal FLAG-tagged human threonyl-tRNA synthetase-like protein (hThrRS-L-FLAG) (human) (UniProt A2RTX5)
T2 sequence: T1 sequence with A15L, A22I, A25L, A29V, A32L

[3] = target: T3, hThrRS-L-T449D with a C-terminal FLAG tag (human) (UniProt A2RTX5)
T3 sequence: T1 sequence with A15L, A22I, A25L, A29V, A32L, T449D

## GluProRS, endogenous in HEK293T (from UniProt P07814 1-1512) (enzyme)
[1]
  binding: no binding
[2]
  binding: binds
[3]
  binding: binds
